This note sets out measurements from patent publication US20190375823A1 (Zymeworks, published 2019).

Data set [1] deals with the molecule itself. Nature of the data set: LC/MS of AlbuPure-purified AlbuCORE-1.
In data set [2] the target is T1, CD19 on Raji B cells (UniProt P15391 20-556, limits assumed).
T1 construct: whole, on cells; also called Raji CD19 B cells
T1 sequence (looked up): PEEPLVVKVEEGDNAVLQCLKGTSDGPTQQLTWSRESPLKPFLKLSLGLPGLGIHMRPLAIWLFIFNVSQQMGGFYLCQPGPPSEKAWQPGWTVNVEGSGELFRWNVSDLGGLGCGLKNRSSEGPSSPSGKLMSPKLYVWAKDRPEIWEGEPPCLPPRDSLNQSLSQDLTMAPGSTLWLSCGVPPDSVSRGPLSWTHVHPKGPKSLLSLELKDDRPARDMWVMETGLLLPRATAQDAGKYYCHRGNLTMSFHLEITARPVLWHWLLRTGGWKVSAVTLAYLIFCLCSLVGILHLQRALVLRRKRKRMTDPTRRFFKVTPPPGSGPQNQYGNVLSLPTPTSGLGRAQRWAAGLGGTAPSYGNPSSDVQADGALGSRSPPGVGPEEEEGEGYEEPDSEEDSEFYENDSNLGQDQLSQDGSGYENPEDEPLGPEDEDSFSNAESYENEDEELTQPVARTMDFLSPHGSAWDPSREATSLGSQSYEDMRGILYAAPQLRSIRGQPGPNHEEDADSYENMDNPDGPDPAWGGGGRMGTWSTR
Nature of the data set: FACS on Raji cells (CD19).

B1: Albumin based Transporter polypeptide 2-Ver 2 (ABH2 fragment B, albumin 342:585) (other)
chain: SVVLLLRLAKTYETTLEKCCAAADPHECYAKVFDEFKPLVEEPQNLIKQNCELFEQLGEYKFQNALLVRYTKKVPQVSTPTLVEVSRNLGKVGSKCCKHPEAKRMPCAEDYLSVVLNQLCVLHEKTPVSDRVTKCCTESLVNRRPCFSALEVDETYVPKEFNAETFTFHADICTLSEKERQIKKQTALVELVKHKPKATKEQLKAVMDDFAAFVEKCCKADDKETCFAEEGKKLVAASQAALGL
notes: Other half of ABH2; also called F2; AlbuCORE-1 fragment B
As to B1, in data set [1], the binding result was “no binding”.

B2: v1092: AlbuCORE_1 (ABH2) with the antiCD3 warhead at the N terminus of fragment 1 and the antiCD19 warhead at the C terminus of fragment 2 (bispecific antibody)
chain 1: not shown
chain 2: SVVLLLRLAKTYETTLEKCCAAADPHECYAKVFDEFKPL[about 200 residues skipped]GGSGDIQLTQSPASLAVSLGQRATISCKASQSVDYDGDSYLNWYQQIPGQPPKLLIYDASNLVSGIPPRFSGSGSGTDFTLNIHPVEKVDAATYHCQQSTEDPWTFGGGTKLEIKGGGGSGGGGSGGGGSQVQLQQSGAELVRPGSSVKISCKASGYAFSSYWMNWVKQRPGQGLEWIGQIWPGDGDTNYNGKFKGKATLTADESSSTAYMQLSSLASEDSAVYFCARRETTTVGRYYYAMDYWGQGTTVTVSS
notes: scFvs adopted from blinatumomab; also called anti-CD3xCD19 albumin-based heteromultimer
Turning to B2, in data set [2], the affinity, expressed as Kd, was 107 nM.
